The campaign covered roughly 420,000 compounds. About 50,000 (12%) were called active. The inconclusive results got no clear call from the source; some entries with a clear call stand among them for comparison. Calls follow the shape of the dose curve; as a rule, active = well fitted inhibition curve with a large enough effect; inconclusive = small, poorly fitted or top-dose-only effect; inactive = flat fitted curve, though single readings scatter. No potency is given beside an inconclusive call; the fits are too rough.
Test: qHTS for Inhibitors of human tyrosyl-DNA phosphodiesterase 1 (TDP1): qHTS in cells in presence of CPT; also: nearly all actives have a fitted effect of over 55% in size
Details: chicken DT40 Tdp1-/-;hTDP1 cells + 20 nM CPT, ATP luminescence, 48 h; activity change, negative = growth inhibition: at 46.2 µM (top of the series) unless noted
Method in brief: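 Chicken DT40 Tdp1-/- cells complemented with human TDP1, 400 cells/well, exposed to compounds plus 20 nM camptothecin for at least 48 h at 37 C; viability read as ATP content by CellTiter-Glo luminescence.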
% is scaled to controls: 0 for no effect and ±100 for the full control effect; potency is read from the fitted curve at half-maximal effect; tags tell the direction and shape of the fitted curve.

| Structure (SMILES) | Potency | activity change, negative = growth inhibition |
| --- | --- | --- |
| O=C(CSC1=Nc2ccccc2N=C(c2ccc(F)cc2)C1)Nc1ccccc1 | inconclusive [inhibitor, single point] | – |
| COc1ccc(NCc2cccn2-c2nnc(N3CCCCC3)s2)cc1OC | inconclusive [inhibitor, single point] | – |
| CC(Oc1cccc2ccccc12)C(=O)N/N=C/c1cccnc1 (centres undefined) | inactive | – |
| Cc1cc(C)c(NC(=O)C2CCN(c3nn4c(=O)cc(C)nc4s3)CC2)c(C)c1 | – | inconclusive: -32.5% [inhibitor] |
| Cc1ccc2c(=O)cc(C(=O)Nc3ccc(S(=O)(=O)Nc4ncccn4)cc3)oc2c1C | inconclusive [inhibitor, single point] | – |
| Cc1cc(C)n(/N=C/c2ccc(O)cc2)c(=O)c1C#N | inactive | – |
| Cc1ccc2nc(COc3ccccc3NC(=O)c3ccc(F)cc3)cc(=O)n2c1 | inactive | – |
| Cc1cc(C)cc(NC(=O)Cn2cc(C(=O)C3CCCCC3)c3ccccc32)c1 | active: 18.4 µM | – |
| O=C(CSc1nc2c([nH]c3ccccc32)c(=O)n1-c1ccc(Cl)cc1)c1ccccc1 | inconclusive [inhibitor, full curve] | – |
| CCOc1ccc(NS(=O)(=O)c2ccc3c(c2)CCCN3C(=O)C2CCC2)cc1 | inconclusive [inhibitor, single point] | – |
| Cc1ccc(NC(=O)CSc2cn(CC(=O)N3CCCC3)c3ccccc23)cc1Cl | active: 25.9 µM | – |
| CC1C(=O)N2CCCc3cc(NC(=O)COc4ccccc4)cc1c32 (centres undefined) | inactive | – |
| COc1ccccc1CNC(=O)c1cn(C)c2ccc(S(=O)(=O)N(C)C3CCCCC3)cc2c1=O | inconclusive [inhibitor, single point] | – |
| COC(=O)c1cc(S(=O)(=O)n2nc(C)c(Br)c2C)c(Cl)cc1Cl | active: 25.9 µM | – |
| COc1ccc(S(=O)(=O)N2CCOCC2)cc1NC(=O)CN1CCCc2ccccc21 | inconclusive [inhibitor, single point] | – |
| Cc1ccc(NC(=O)c2cccc(NC(=O)CC3SC(N4CCCCC4)=NC3=O)c2)nc1 (centres undefined) | inconclusive [inhibitor, single point] | – |
| CC(Cc1ccccc1)(NC(=O)CN)c1ccccc1 (centres undefined) | inconclusive [inhibitor, partial curve, poor fit] | – |
| CCCC1NC(=O)c2cc3ccccc3cc2-n2c1nc1ccc(F)cc1c2=O (centres undefined) | inconclusive [inhibitor, partial curve, poor fit] | – |
| O=C(CSc1nc2ccccc2[nH]1)Nc1cccc(S(=O)(=O)N2CCOCC2)c1 | inconclusive [inhibitor, single point] | – |
| CSCCC1COC(c2cccs2)=N1 (centres undefined) | inactive | – |
| Cc1c(NC(=O)CSc2nnnn2-c2ccc(C(=O)O)cc2)c(=O)n(-c2ccccc2)n1C | inactive | – |
| CCCC(=O)NC(=S)Nc1cccc(NC(=O)c2ccc(Cl)cc2Cl)c1 | inconclusive [inhibitor, single point] | – |

| Structure (SMILES) | Potency | activity change, negative = growth inhibition |
| --- | --- | --- |
| O=C(c1cc2ccccc2oc1=O)N(Cc1cccs1)CC1CCCO1 (centres undefined) | inconclusive [inhibitor, partial curve] | – |
| CCOC(=O)C1(Cc2ccc(OC)cc2)CCN(C(=O)Cc2cccnc2)CC1 | inactive | – |
| CCn1c(SCC(=O)Nc2ccc(C(C)=O)cc2)nc2nc3c(cc2c1=O)CCCC3 | inconclusive [inhibitor, partial curve] | – |
| COc1ccc(Cn2c(SCC(=O)N(C)Cc3ccccc3)nc3ccccc32)cc1 | inconclusive [inhibitor, single point] | – |
| O=C1CC2(CCCC2)C(=O)N1CN1CCN(S(=O)(=O)c2cc(F)ccc2F)CC1 | inactive | – |
| O=C(Nc1ccc2c(c1)OCCO2)C(CCc1ccccc1)N1CCN(C/C=C/c2ccccc2)CC1 (centres undefined) | inconclusive [inhibitor, single point] | – |
| CC(C)(C)C1CCc2oc3ccc(NS(=O)(=O)c4ccc(C(=O)O)cc4)cc3c2C1 (centres undefined) | inactive | – |
| CC1(C)CC(N2CCOCC2)=CC(=S)N1 | inactive | – |
| COc1ccc(Br)cc1CN(C)C(=O)c1ccccc1OCc1c(C)noc1C | inconclusive [inhibitor, single point] | – |
| CC(=O)Nc1ccc(CN2CCC(N3CCC(C(=O)NC4CC4)CC3)CC2)cc1 | inactive | – |
| Cc1ccccc1NC(=O)CCCSc1nc2ccccc2s1 | inconclusive [inhibitor, partial curve, poor fit] | – |
| CCCCNC(=O)C1(C)CCN1C(=O)c1ccc2sccc2c1 (centres undefined) | inconclusive [inhibitor, single point] | – |
| CC(=O)N1CCc2c(sc(NC(=O)c3cccc(N4C(=O)CCC4=O)c3)c2C(N)=O)C1 | inactive | – |
| COc1ccc(N2CCN(C(=O)COC(=O)CCOc3ccc(C)cc3)CC2)cc1 | inconclusive [inhibitor, full curve] | – |
| COc1cccc(C(O)c2nc3ccccc3n2C(C)C)c1OC (centres undefined) | inactive | – |
| O=C(NCCc1nc2ccccc2n1CCCOc1ccc2ccccc2c1)C1CCCCC1 | inconclusive [inhibitor, single point] | – |
| Cc1ccc(NC(=O)c2cc(S(=O)(=O)NCCc3ccc(Cl)cc3)ccc2F)cc1 | inconclusive [inhibitor, single point] | – |
| Cc1ccc(OCC(=O)NCCCNC(=O)c2ccccn2)cc1 | – | inconclusive: -33% [inhibitor] |
| Cc1ccc(S(=O)(=O)N2CCCCC2)cc1NC(=O)C1=NN(c2ccccc2)C(=O)CC1 | inconclusive [inhibitor, single point] | – |
| Cc1ccc(NC(=O)CC2S/C(=N/N=C3\CCCc4ccccc43)NC2=O)cc1 (centres undefined) | inactive | – |
| CN1CCc2c(sc3c2C(=O)NC(c2ccc(C(C)(C)C)cc2)N3)C1 (centres undefined) | inconclusive [inhibitor, single point] | – |
| OCC1(Cc2cccc(Cl)c2)CCCN(Cc2cn[nH]c2C2CCCCC2)C1 (centres undefined) | inconclusive [inhibitor, single point] | – |

— PubChem BioAssay AID686979 (National Center for Advancing Translational Sciences (NCATS), 2013)
